Some of the results follow.
B1: PhoQ; a variant is named by its letters at X, in order, P23837 (parent)
chain: MKKLLRLFFPLSLRVRFLLATAAVVLVLSLAYGMVALIGYSVSFDKTTFRLLRGESNLFYTLAKWENNKLHVELPENIDKQSPTMTLIYDENGQLLWAQRDVPWLMKMIQPDWLKSNGFHEIEADVNDTSLLLSGDHSIQQQLQEVREDDDDAEMTHSVAVNVYPATSRMPKLTIVVVDTIPVELKSSYMVWSWFIYVLSANLLLVIPLLWVAAWWSLRPIEALAKEVRELEEHNRELLNPATTRELTSLVRNLNRLLKSERERYDKYRTTLTDLTHSLKTPLXXLQXXLRSLRSEKMSVSDAEPVMLEQISRISQQIGYYLHRASMRGGTLLSRELHPVAPLLDNLTSALNKVYQRKGVNISLDISPEISFVGEQNDFVEVMGNVLDNACKYCLEFVEISARQTDEHLYIVVEDDGPGIPLSKREVIFDRGQRVDTLRPGQGVGLAVAREITEQYEGKIVAGESMLGGARMEVIFGRQHSAPKDE

Variants of: B1
Experiment: enrichment ratio after two sorts for PhoP signalling (ratio (wild type AVST 3.29)); higher = more functional
Conditions: with PhoP (E. coli)

Row | Variant | enrichment ratio
1 | WRLA | ≤ 0.25
2 | SLHG | ≤ 0.25
3 | QLNV | ≤ 0.25
4 | RTWP | ≤ 0.25
5 | FYLG | ≤ 0.25
6 | HTAP | ≤ 0.25
7 | GVKH | ≤ 0.25
8 | TIGP | ≤ 0.25
9 | KETS | ≤ 0.25
10 | ATVV | 10.2
11 | SYKW | ≤ 0.25
12 | ARHI | ≤ 0.25
13 | PYTN | ≤ 0.25
14 | IGMF | ≤ 0.25
15 | MYTP | ≤ 0.25
16 | NYVQ | ≤ 0.25
17 | RVGM | ≤ 0.25
18 | FMHQ | ≤ 0.25
19 | NSMI | 2.19
20 | AKTD | ≤ 0.25
21 | HRGQ | ≤ 0.25
22 | YSMS | ≤ 0.25
23 | LACQ | ≤ 0.25
24 | IEYR | ≤ 0.25
25 | KYWN | ≤ 0.25
26 | VTVW | ≤ 0.25

Row | Variant | enrichment ratio
27 | FPCQ | ≤ 0.25
28 | DWQH | ≤ 0.25
29 | MIDW | ≤ 0.25
30 | MING | ≤ 0.25
31 | LDWE | ≤ 0.25
32 | ESMG | ≤ 0.25
33 | MDID | ≤ 0.25
34 | LQSV | ≤ 0.25
35 | MNWR | ≤ 0.25
36 | ADVT | ≤ 0.25
37 | DGSF | ≤ 0.25
38 | DKWD | ≤ 0.25
39 | GYHR | ≤ 0.25
40 | FKCW | ≤ 0.25
41 | DRAM | ≤ 0.25
42 | ETQS | ≤ 0.25
43 | HTHL | ≤ 0.25
44 | NKWD | ≤ 0.25
45 | TFDQ | ≤ 0.25
46 | DEPL | ≤ 0.25
47 | RDCE | ≤ 0.25
48 | ARGV | ≤ 0.25
49 | MRAF | ≤ 0.25
50 | LGWF | ≤ 0.25
51 | PKHH | ≤ 0.25
52 | QWYR | ≤ 0.25

Row | Variant | enrichment ratio
53 | PMMT | ≤ 0.25
54 | GYED | ≤ 0.25
55 | ETFV | ≤ 0.25
56 | SWFF | ≤ 0.25
57 | MTRF | ≤ 0.25
58 | LDTL | ≤ 0.25
59 | ATFD | ≤ 0.25
60 | QGVQ | ≤ 0.25
61 | TDWG | ≤ 0.25
62 | IWRH | ≤ 0.25
63 | NEDL | ≤ 0.25
64 | GYDF | ≤ 0.25
65 | DVHM | ≤ 0.25
66 | MRMN | ≤ 0.25
67 | NRVK | ≤ 0.25
68 | MLHD | ≤ 0.25
69 | RQWG | ≤ 0.25
70 | FYCQ | ≤ 0.25
71 | GLLE | 0.585
72 | FSML | 12.7
73 | SIRG | ≤ 0.25
74 | IWDG | ≤ 0.25
75 | HSND | ≤ 0.25
76 | YDIW | ≤ 0.25
77 | LDED | ≤ 0.25
78 | FWVC | ≤ 0.25

Row | Variant | enrichment ratio
79 | QTTF | ≤ 0.25
80 | FMKF | ≤ 0.25
81 | WDVK | ≤ 0.25
82 | MVLY | ≤ 0.25
83 | EQWF | ≤ 0.25
84 | KRST | ≤ 0.25
85 | THKG | ≤ 0.25
86 | HPAV | ≤ 0.25
87 | DWDF | ≤ 0.25
88 | PNVG | ≤ 0.25
89 | GQRN | ≤ 0.25
90 | ECML | ≤ 0.25
91 | TSQP | ≤ 0.25
92 | PETH | ≤ 0.25
93 | AGCM | 13.6
94 | YCLV | 3.43
95 | YNGT | ≤ 0.25
96 | ETYL | ≤ 0.25
97 | DLHT | ≤ 0.25
98 | GRPT | ≤ 0.25
99 | TKWH | ≤ 0.25
100 | RKGM | ≤ 0.25
101 | GGHQ | ≤ 0.25
102 | EVLV | ≤ 0.25
103 | LGDI | ≤ 0.25
104 | RLWQ | ≤ 0.25

Row | Variant | enrichment ratio
105 | AEGC | 2.22
106 | EYSL | ≤ 0.25
107 | LAIN | ≤ 0.25
108 | MQWI | 14.4
109 | NTSQ | ≤ 0.25
110 | FCQR | ≤ 0.25
111 | LICH | ≤ 0.25
112 | AKTT | 3.25
113 | GTMK | ≤ 0.25
114 | VCLW | ≤ 0.25
115 | KFEI | ≤ 0.25
116 | KVMI | ≤ 0.25
117 | WRDH | ≤ 0.25
118 | PHKQ | ≤ 0.25
119 | YSCC | ≤ 0.25
120 | LNTQ | ≤ 0.25
121 | SASP | ≤ 0.25
122 | KMIR | ≤ 0.25
123 | DFEL | ≤ 0.25
124 | NGTS | ≤ 0.25
125 | PAYI | ≤ 0.25
126 | EGQC | ≤ 0.25
127 | VMKA | ≤ 0.25
128 | WLTT | ≤ 0.25
129 | HWIM | ≤ 0.25
130 | ILYV | ≤ 0.25

Row | Variant | enrichment ratio
131 | ADWL | ≤ 0.25
132 | RCRT | ≤ 0.25
133 | SWLD | ≤ 0.25
134 | SGNF | ≤ 0.25
135 | TKGR | ≤ 0.25
136 | IHCL | ≤ 0.25
137 | GNGY | ≤ 0.25
138 | SEAC | 19.8
139 | TAPV | ≤ 0.25
140 | DLPS | ≤ 0.25
141 | IFRF | ≤ 0.25
142 | MWVH | ≤ 0.25
143 | LLSG | ≤ 0.25
144 | YPVY | ≤ 0.25
145 | VRTS | ≤ 0.25
146 | SSHF | ≤ 0.25
147 | PNCP | 0.425
148 | MDHM | ≤ 0.25
149 | DRKV | ≤ 0.25
150 | RTNW | ≤ 0.25
151 | GDWT | ≤ 0.25
152 | EPCP | ≤ 0.25
153 | ACIM | 30.7

Reference: a collection of fitness landscapes (doi:10.1126/science.1257360)
